The whole screen tested about 310,000 compounds, of which about 2,200 (0.71%) showed an effect of 50% or more. The effect is printed as a negative number. This is one part of the list.
Biological target: human ether-à-go-go-related gene (hERG) potassium channel (human, UniProt Q12809)
Assay: primary screen, population patch clamp on CHO cells stably expressing hERG

Chain of human ether-à-go-go-related gene (hERG) potassium channel (Q12809 whole entry, looked up): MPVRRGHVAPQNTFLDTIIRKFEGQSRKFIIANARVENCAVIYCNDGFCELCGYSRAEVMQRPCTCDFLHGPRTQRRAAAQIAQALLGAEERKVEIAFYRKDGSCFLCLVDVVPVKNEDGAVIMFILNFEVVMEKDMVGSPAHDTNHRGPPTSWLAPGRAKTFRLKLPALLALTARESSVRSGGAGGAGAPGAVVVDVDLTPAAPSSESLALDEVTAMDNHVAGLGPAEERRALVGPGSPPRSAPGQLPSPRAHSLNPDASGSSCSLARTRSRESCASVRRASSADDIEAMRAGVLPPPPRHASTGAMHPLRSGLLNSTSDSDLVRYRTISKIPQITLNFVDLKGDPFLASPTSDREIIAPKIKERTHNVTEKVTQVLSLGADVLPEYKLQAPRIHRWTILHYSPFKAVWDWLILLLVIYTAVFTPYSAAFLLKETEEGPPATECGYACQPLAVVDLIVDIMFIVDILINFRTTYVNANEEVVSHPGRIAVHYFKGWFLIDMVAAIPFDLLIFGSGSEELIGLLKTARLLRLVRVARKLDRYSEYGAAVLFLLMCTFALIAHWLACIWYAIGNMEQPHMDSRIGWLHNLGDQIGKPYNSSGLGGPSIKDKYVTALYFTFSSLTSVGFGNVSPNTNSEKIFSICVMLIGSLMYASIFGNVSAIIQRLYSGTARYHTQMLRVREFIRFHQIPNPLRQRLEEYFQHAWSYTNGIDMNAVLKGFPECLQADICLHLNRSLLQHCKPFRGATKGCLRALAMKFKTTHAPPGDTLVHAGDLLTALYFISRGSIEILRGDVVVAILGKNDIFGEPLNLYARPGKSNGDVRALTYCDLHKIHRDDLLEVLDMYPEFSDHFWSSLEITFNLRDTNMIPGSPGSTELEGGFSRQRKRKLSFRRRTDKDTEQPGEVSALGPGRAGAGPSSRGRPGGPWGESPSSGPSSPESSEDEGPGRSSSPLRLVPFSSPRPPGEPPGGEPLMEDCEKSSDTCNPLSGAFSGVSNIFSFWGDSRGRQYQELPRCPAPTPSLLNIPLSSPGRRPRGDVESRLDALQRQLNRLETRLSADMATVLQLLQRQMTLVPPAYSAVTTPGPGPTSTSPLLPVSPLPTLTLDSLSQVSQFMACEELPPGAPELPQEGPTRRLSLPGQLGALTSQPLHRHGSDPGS

Going from `O=C(COC(=O)c1cc(-c2ccco2)nc2ccccc12)NCc1ccccc1` to `CN1Cc2ccccc2N(CC(=O)NCc2ccccc2)C1=O`, the “hERG current change (%, negative = inhibition) at 1uM” value rises from 5.47% to 9.98%.

Compared with `O=C(CSc1n[nH]c(-c2ccccn2)n1)Nc1ccc(F)cc1`, `NS(=O)(=O)c1ccc(NC(=O)CSC2=NC(=O)C(c3ccccc3)C(=O)N2)cc1` (centres unmarked) is lower in “hERG current change (%, negative = inhibition) at 1uM” value: 12.8% for the first, 3.9% for the second.

Compared with `O=C(Nc1c2c(nn1-c1cccc(Cl)c1)CS(=O)(=O)C2)c1ccc2c(c1)OCO2`, `O=C(NC(=S)Nc1ccc2c(c1)OCO2)c1ccc(Cl)cc1` is lower in “hERG current change (%, negative = inhibition) at 1uM” value: 17.7% for the first, 17.6% for the second.

First: N#Cc1nc(-c2ccc(OCc3ccccc3)cc2)oc1NCCN1CCOCC1
Second: CCC(C(=O)Nc1ccccc1C(=O)N1CCOCC1)N1C(=O)c2ccccc2C1=O (centres unmarked)
The “hERG current change (%, negative = inhibition) at 1uM” value of the first is higher: 18.7% for the first, 6.63% for the second.

Going from `COc1ccc(NC(=O)C#Cc2ccccc2)cc1OC` to `COc1ccc(NC(=O)CSc2nnc(-c3ccccc3)n2Cc2ccco2)cc1OC`, the “hERG current change (%, negative = inhibition) at 1uM” value falls from 8.43% to -7.89%.

First: COc1ccc(C(=O)Nc2cc(C(F)(F)F)ccc2-n2cnc3ccccc32)cc1
Second: CCCC(=O)Nc1c(-c2ccc(OC)cc2)c(=O)c2ccccc2n1C
The “hERG current change (%, negative = inhibition) at 1uM” value of the first is lower: 10.7% for the first, 16.6% for the second.

Compared with `COc1ccc(NC(=O)c2ccccc2NS(=O)(=O)c2ccc(CNC(C)=O)cc2)c(OC)c1`, `O=C(O)c1cccc(S(=O)(=O)Nc2ccc(O)c(Sc3nc4ccccc4s3)c2)c1` is higher in “hERG current change (%, negative = inhibition) at 1uM” value: 13.3% for the first, 26.7% for the second.

Compared with `CC(=O)c1nnn(-c2ccc([N+](=O)[O-])cc2C)c1C`, `Cc1cc(C)c(S(=O)(=O)n2c([N+](=O)[O-])cnc2C)cc1C` is lower in “hERG current change (%, negative = inhibition) at 1uM” value: 5.69% for the first, 4.47% for the second.

Compared with `CC(C)(C)C(=O)NC(=O)Nc1ccccc1C(F)(F)F`, `CC(C)(C)NC(=O)CN1C(=O)NC(c2ccccc2)(c2ccccc2)C1=O` is lower in “hERG current change (%, negative = inhibition) at 1uM” value: 22.2% for the first, 21.5% for the second.

First: Cc1ccccc1/C=N/n1c(-c2cc(-c3ccccc3)n[nH]2)n[nH]c1=S
Second: CCn1c(CCn2c3ccccc3c3ccccc32)n[nH]c1=S
The “hERG current change (%, negative = inhibition) at 1uM” value of the first is higher: 15.6% for the first, 4.85% for the second.

Going from `Cc1ccc(S(=O)(=O)c2ccc(C)cc2)cc1` to `CN(C)c1ccc(N=Nc2ccc(S(=O)(=O)[O-])cc2)c2ccccc12.[Na+]`, the “hERG current change (%, negative = inhibition) at 1uM” value falls from 16.2% to 7.18%.

Compared with `CCOc1ccc2nc(SCC(=O)Nc3ccc4c(c3)OCO4)sc2c1`, `CC(C)Nc1nnc(SCC(=O)NCc2ccc3c(c2)OCO3)s1` is higher in “hERG current change (%, negative = inhibition) at 1uM” value: 4.85% for the first, 19.7% for the second.

Compared with `CC(=O)N(C)c1ccc(NC(=O)c2cnn(C)c2)cc1`, `O=C(Cc1ccc([N+](=O)[O-])cc1)Nc1ccc(C(=O)N2CCOCC2)cc1` is lower in “hERG current change (%, negative = inhibition) at 1uM” value: 10.7% for the first, 9.76% for the second.

First: COc1ccc(OCC(O)CNCCNc2nccc(C(F)(F)F)n2)cc1 (centres unmarked)
Second: COC(=O)COc1cccc(-n2cnnn2)c1
The “hERG current change (%, negative = inhibition) at 1uM” value of the first is lower: -6.87% for the first, 16.3% for the second.

First: O=C(c1ccco1)N1N=C(c2cccs2)CC1c1cc([N+](=O)[O-])ccc1O (centres unmarked)
Second: O=C(c1ccccc1)c1cc(-c2ccccn2)c(N2CCOCC2)s1
The “hERG current change (%, negative = inhibition) at 1uM” value of the first is higher: 5.87% for the first, 3.43% for the second.

First: CCN(C(=O)COC(=O)c1cn(-c2ccccc2)nc1-c1ccccc1)C1CCS(=O)(=O)C1 (centres unmarked)
Second: c1ccc(C2=NN(c3ccccc3)CC2)cc1
The “hERG current change (%, negative = inhibition) at 1uM” value of the first is lower: -4.73% for the first, 4.9% for the second.

Going from `COc1cccc(C(=O)COC(=O)CCC(=O)NC2CCCCC2)c1` to `COc1ccc(-n2c(C)cc(C(=O)COC(=O)c3ccc(O)cc3O)c2C)cc1`, the “hERG current change (%, negative = inhibition) at 1uM” value rises from 10.1% to 16.1%.

Going from `c1ccc(N2CCN(CCc3nnc4n3CCCCC4)CC2)cc1` to `CCCCOc1ccc(S(=O)(=O)N2CCN(C)CC2)cc1`, the “hERG current change (%, negative = inhibition) at 1uM” value rises from 2.9% to 11%.

First: N#C/C(=C\c1ccc(O)c(O)c1)C(=O)c1ccc(O)c(O)c1
Second: O=C(NC(=S)NCc1cccnc1)c1cc(Br)ccc1Cl
The “hERG current change (%, negative = inhibition) at 1uM” value of the first is lower: 7.27% for the first, 9.98% for the second.

Going from `CCn1c(/C=C2\C(=O)N(C(C)C)c3ccccc32)nc2ccccc2c1=O` to `O=C1c2ccccc2C(=O)N1S(=O)(=O)c1ccccc1`, the “hERG current change (%, negative = inhibition) at 1uM” value rises from 8.36% to 10.9%.

First: COc1ccccc1NC(=O)CSc1nnc(Cn2cnc3ccccc32)o1
Second: Fc1cccc(Cl)c1Cn1nnc2c(NCc3ccncc3)ncnc21
The “hERG current change (%, negative = inhibition) at 1uM” value of the first is higher: 6.91% for the first, -1.74% for the second.

First: CN(C(=O)C1CCOC1)c1nnc(-c2cnccn2)s1 (centres unmarked)
Second: Cc1c(-c2ccco2)[n+](=O)c2c(n1[O-])CCCCC2
The “hERG current change (%, negative = inhibition) at 1uM” value of the first is higher: 12.7% for the first, 3.5% for the second.
